According to the supplement of paper PMC4967469:

Compound: N#CC[C@H](C1CCCC1)n1cc(-c2ncnc3[nH]ccc23)cn1 [Ruxolitinib]
Assay: Viability of human cancer cell lines after 72 h of drug (GDSC screen)
Method: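 Human cancer cell lines in 384-well plates, medium with 10% serum, drug for 72 h over a 256-fold dose range (nine 2-fold or five 4-fold steps up to the top dose). Adherent lines were fixed and stained with the nucleic acid dye Syto60, suspension lines read with resazurin; signal relative to control wells, capped at 0 and 100%. One two-parameter sigmoid per drug and line, fitted in a mixed model over all curves with the slope shared within a line.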

Work on “BE2-M17 (neuroblastoma, adherent, top dose 5.24 µM)” yielded an AUC of 0.987 and a pIC50 of under 5.28.

In the case of “BE-13 (lymphoblastic leukaemia, suspension, top dose 5.24 µM)”, the AUC was 0.985 and the pIC50 was under 5.28.

“BEN (non-small cell lung carcinoma, adherent, top dose 5.24 µM)” showed an AUC of 0.983 and a pIC50 of under 5.28.

In the case of “BFTC-905 (bladder, adherent, top dose 5.24 µM)”, the AUC was 0.99 and the pIC50 was under 5.28.

Cell Line “BFTC-909 (kidney, adherent, top dose 5.24 µM)” has an AUC of 0.988 and a pIC50 of under 5.28.

In the case of “BHT-101 (thyroid, adherent, top dose 5.24 µM)”, the AUC was 0.982 and the pIC50 was under 5.28.

“BHY (head and neck, adherent, top dose 5.24 µM)” showed an AUC of 0.986 and a pIC50 of under 5.28.

With “BICR10 (head and neck, adherent, top dose 5.24 µM)” the AUC was 0.985 and the pIC50 was under 5.28.

Work on “BICR22 (head and neck, adherent, top dose 5.24 µM)” yielded an AUC of 0.983 and a pIC50 of under 5.28.

“BICR31 (head and neck, adherent, top dose 5.24 µM)” gave an AUC of 0.988 and a pIC50 of under 5.28.

“BICR78 (head and neck, adherent, top dose 5.24 µM)” showed an AUC of 0.981 and a pIC50 of under 5.28.

Cell Line “BL-41 (Burkitt lymphoma, suspension, top dose 5.24 µM)” has an AUC of 0.976 and a pIC50 of under 5.28.

For “BPH-1 (prostate, adherent, top dose 5.24 µM)”, the AUC was 0.982 and the pIC50 was under 5.28.

In the case of “BT-20 (breast, adherent, top dose 5.24 µM)”, the AUC was 0.983 and the pIC50 was under 5.28.

“BT-474 (breast, adherent, top dose 5.24 µM)” gave an AUC of 0.986 and a pIC50 of under 5.28.

“BT-483 (breast, adherent, top dose 5.24 µM)” showed an AUC of 0.978 and a pIC50 of under 5.28.

Cell Line “BV-173 (chronic myeloid leukaemia, suspension, top dose 5.24 µM)” has an AUC of 0.976 and a pIC50 of under 5.28.

In the case of “Becker (glioma, adherent, top dose 5.24 µM)”, the AUC was 0.983 and the pIC50 was under 5.28.

Cell Line “C2BBe1 (large intestine, adherent, top dose 5.24 µM)” has an AUC of 0.986 and a pIC50 of under 5.28.

Work on C3A (liver, adherent, top dose 5.24 µM) yielded an AUC of 0.985 and a pIC50 of under 5.28.

“C-4-I (cervix, adherent, top dose 5.24 µM)” showed an AUC of 0.986 and a pIC50 of under 5.28.

Cell Line “C-33-A (cervix, adherent, top dose 5.24 µM)” has an AUC of 0.983 and a pIC50 of under 5.28.

With “CA46 (Burkitt lymphoma, suspension, top dose 5.24 µM)” the AUC was 0.975 and the pIC50 was under 5.28.

In the case of “CADO-ES1 (Ewing sarcoma, suspension, top dose 5.24 µM)”, the AUC was 0.983 and the pIC50 was under 5.28.

For “CAKI-1 (kidney, adherent, top dose 5.24 µM)”, the AUC was 0.976 and the pIC50 was under 5.28.

“CAL-12T (non-small cell lung carcinoma, adherent, top dose 5.24 µM)” gave an AUC of 0.95 and a pIC50 of under 5.28.

“CAL-27 (head and neck, adherent, top dose 5.24 µM)” gave an AUC of 0.967 and a pIC50 of under 5.28.

Work on “CAL-29 (bladder, adherent, top dose 5.24 µM)” yielded an AUC of 0.984 and a pIC50 of under 5.28.

Work on “CAL-33 (head and neck, adherent, top dose 5.24 µM)” yielded an AUC of 0.984 and a pIC50 of under 5.28.

In the case of “CAL-39 (cervix, adherent, top dose 5.24 µM)”, the AUC was 0.984 and the pIC50 was under 5.28.

Cell Line “CAL-51 (breast, adherent, top dose 5.24 µM)” has an AUC of 0.99 and a pIC50 of under 5.28.

“CAL-54 (kidney, adherent, top dose 5.24 µM)” gave an AUC of 0.888 and a pIC50 of under 5.28.

“CAL-62 (thyroid, adherent, top dose 5.24 µM)” was tested, and the AUC was 0.985 and the pIC50 was under 5.28.

“CAL-72 (osteosarcoma, adherent, top dose 5.24 µM)” showed an AUC of 0.984 and a pIC50 of under 5.28.

“CAL-78 (chondrosarcoma, adherent, top dose 5.24 µM)” showed an AUC of 0.986 and a pIC50 of under 5.28.

In the case of “CAL-85-1 (breast, adherent, top dose 5.24 µM)”, the AUC was 0.979 and the pIC50 was under 5.28.

Work on “CAL-120 (breast, adherent, top dose 5.24 µM)” yielded an AUC of 0.965 and a pIC50 of under 5.28.

In the case of “CAL-148 (breast, suspension, top dose 5.24 µM)”, the AUC was 0.99 and the pIC50 was under 5.28.

Cell Line “CAMA-1 (breast, adherent, top dose 5.24 µM)” has an AUC of 0.981 and a pIC50 of under 5.28.

“CAPAN-1 (pancreas, adherent, top dose 5.24 µM)” gave an AUC of 0.986 and a pIC50 of under 5.28.

“CAS-1 (glioma, adherent, top dose 5.24 µM)” gave an AUC of 0.974 and a pIC50 of under 5.28.

For “CCF-STTG1 (glioma, adherent, top dose 5.24 µM)”, the AUC was 0.986 and the pIC50 was under 5.28.

Cell Line “CCK-81 (large intestine, adherent, top dose 5.24 µM)” has an AUC of 0.99 and a pIC50 of under 5.28.

In the case of “CCRF-CEM (lymphoblastic leukaemia, suspension, top dose 5.24 µM)”, the AUC was 0.99 and the pIC50 was under 5.28.

“CESS (acute myeloid leukaemia, suspension, top dose 5.24 µM)” gave an AUC of 0.99 and a pIC50 of under 5.28.

For “CFPAC-1 (pancreas, adherent, top dose 5.24 µM)”, the AUC was 0.984 and the pIC50 was under 5.28.

“CGTH-W-1 (thyroid, adherent, top dose 5.24 µM)” showed an AUC of 0.984 and a pIC50 of under 5.28.

“CHL-1 (melanoma, adherent, top dose 5.24 µM)” gave an AUC of 0.987 and a pIC50 of under 5.28.

“CHP-134 (neuroblastoma, suspension, top dose 5.24 µM)” was tested, and the AUC was 0.97 and the pIC50 was under 5.28.

With “CHP-212 (neuroblastoma, adherent, top dose 5.24 µM)” the AUC was 0.875 and the pIC50 was 5.35.

“CHSA0011 (chondrosarcoma, adherent, top dose 5.24 µM)” was tested, and the AUC was 0.978 and the pIC50 was under 5.28.

Work on “CHSA0108 (chondrosarcoma, adherent, top dose 5.24 µM)” yielded an AUC of 0.954 and a pIC50 of under 5.28.

“CHSA8926 (chondrosarcoma, adherent, top dose 5.24 µM)” showed an AUC of 0.976 and a pIC50 of under 5.28.

Work on “CL-11 (large intestine, adherent, top dose 5.24 µM)” yielded an AUC of 0.986 and a pIC50 of under 5.28.

“COLO-320-HSR (large intestine, suspension, top dose 5.24 µM)” gave an AUC of 0.98 and a pIC50 of under 5.28.

For “COLO-668 (small cell lung carcinoma, adherent, top dose 5.24 µM)”, the AUC was 0.979 and the pIC50 was under 5.28.

“COLO-678 (large intestine, semi-adherent, top dose 5.24 µM)” showed an AUC of 0.985 and a pIC50 of under 5.28.

“COLO-679 (melanoma, adherent, top dose 5.24 µM)” showed an AUC of 0.985 and a pIC50 of under 5.28.

Work on “COLO-680N (oesophagus, adherent, top dose 5.24 µM)” yielded an AUC of 0.984 and a pIC50 of under 5.28.

In the case of “COLO-684 (endometrium, suspension, top dose 5.24 µM)”, the AUC was 0.973 and the pIC50 was under 5.28.

“COLO-783 (melanoma, adherent, top dose 5.24 µM)” showed an AUC of 0.991 and a pIC50 of under 5.28.

Cell Line “COLO-824 (breast, adherent, top dose 5.24 µM)” has an AUC of 0.98 and a pIC50 of under 5.28.

“COR-L23 (large cell lung carcinoma, adherent, top dose 5.24 µM)” was tested, and the AUC was 0.982 and the pIC50 was under 5.28.

Cell Line “COR-L88 (small cell lung carcinoma, adherent, top dose 5.24 µM)” has an AUC of 0.986 and a pIC50 of under 5.28.

For “COR-L95 (small cell lung carcinoma, adherent, top dose 5.24 µM)”, the AUC was 0.966 and the pIC50 was under 5.28.

Work on “COR-L105 (lung adenocarcinoma, adherent, top dose 5.24 µM)” yielded an AUC of 0.934 and a pIC50 of under 5.28.

“COR-L279 (small cell lung carcinoma, suspension, top dose 5.24 µM)” was tested, and the AUC was 0.981 and the pIC50 was under 5.28.

In the case of “COR-L303 (small cell lung carcinoma, suspension, top dose 5.24 µM)”, the AUC was 0.986 and the pIC50 was under 5.28.

Cell Line “COR-L311 (small cell lung carcinoma, suspension, top dose 5.24 µM)” has an AUC of 0.966 and a pIC50 of under 5.28.

With “COR-L321 (lung, suspension, top dose 5.24 µM)” the AUC was 0.98 and the pIC50 was under 5.28.

With “CP50-MEL-B (melanoma, adherent, top dose 5.24 µM)” the AUC was 0.988 and the pIC50 was under 5.28.

With “CP66-MEL (melanoma, adherent, top dose 5.24 µM)” the AUC was 0.985 and the pIC50 was under 5.28.

“CPC-N (small cell lung carcinoma, suspension, top dose 5.24 µM)” gave an AUC of 0.985 and a pIC50 of under 5.28.

For CS1 (bone, adherent, top dose 5.24 µM), the AUC was 0.983 and the pIC50 was under 5.28.

“CTB-1 (B-cell lymphoma, suspension, top dose 5.24 µM)” gave an AUC of 0.962 and a pIC50 of under 5.28.

Work on “CTV-1 (acute myeloid leukaemia, suspension, top dose 5.24 µM)” yielded an AUC of 0.932 and a pIC50 of under 5.28.

“CW-2 (large intestine, adherent, top dose 5.24 µM)” gave an AUC of 0.984 and a pIC50 of under 5.28.

“Ca9-22 (head and neck, adherent, top dose 5.24 µM)” gave an AUC of 0.982 and a pIC50 of under 5.28.

Work on “Ca-Ski (cervix, adherent, top dose 5.24 µM)” yielded an AUC of 0.979 and a pIC50 of under 5.28.

pIC50: −log10 of the molar value. Lines with a small IC50 respond at low doses; where the fit passes the top or lowest dose, that dose stands as a limit. AUC sums up the same curve from the lowest dose to the 256-fold higher top dose; values near 1 show little effect.
